Experimental data: the supplement of paper PMC4967469
IC50 is the fitted dose that halves viability relative to control wells, and lower means more sensitive; where the fit passes the top or lowest dose, that dose stands as a limit. For AUC the same curve is integrated over the 256-fold range of doses and scaled to a fraction; it is 1 without any effect and falls as sensitivity rises. For some assays here: An inferred top dose was calculated from the reported fits. For some assays here: Where an entry number is given, a second screen of the drug exists; the two often differ.

Assays:
Experiment in all cases: Viability of human cancer cell lines after 72 h of drug (GDSC screen)
HG-5-88-01 = compound: COc1cc(N2CCC(C(N)=O)CC2)ccc1Nc1nc(N)c(Cl)c(Nc2ccccc2S(=O)(=O)C(C)C)n1 [HG-5-88-01]; details: top dose 10 µM; top dose inferred
Procedure: (§1)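 Human cancer cell lines in 384-well plates, medium with 10% serum, drug for 72 h over a 256-fold dose range (nine 2-fold or five 4-fold steps up to the top dose). Adherent lines were fixed and stained with the nucleic acid dye Syto60, suspension lines read with resazurin; signal relative to control wells, capped at 0 and 100%. One two-parameter sigmoid per drug and line, fitted in a mixed model over all curves with the slope shared within a line.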

Tamoxifen = compound: CC/C(=C(\c1ccccc1)c1ccc(OCCN(C)C)cc1)c1ccccc1 [Tamoxifen]; details: top dose 5 µM
Procedure: as §1

Bleomycin = compound: Cc1c(N)nc([C@H](CC(N)=O)NC[C@H](N)C(N)=O)nc1C(=O)N[C@H](C(=O)N[C@H](C)[C@@H](O)[C@H](C)C(=O)N[C@H](C(=O)NCCc1nc(-c2nc(C(=O)NCCC[S+](C)C)cs2)cs1)[C@@H](C)O)[C@@H](OC1OC(CO)C(O)C(O)C1OC1OC(CO)C(O)C(OC(N)=O)C1O)c1cnc[nH]1 [Bleomycin]
Procedure: as §1

OSI-930 = compound: O=C(Nc1ccc(OC(F)(F)F)cc1)c1sccc1NCc1ccnc2ccccc12 [OSI-930]; details: top dose 10.24 µM
Procedure: as §1

LAQ824 = compound: O=C(/C=C/c1ccc(CN(CCO)CCc2c[nH]c3ccccc23)cc1)NO [LAQ824]; details: top dose 1.024 µM; top dose inferred
Procedure: as §1

NSC-87877 = compound: O=S(=O)(O)c1ccc2cc(N=Nc3cc(S(=O)(=O)O)c4cccnc4c3O)ccc2c1 [NSC-87877]; details: top dose 16 µM; top dose inferred
Procedure: as §1

Masitinib = compound: Cc1ccc(NC(=O)c2ccc(CN3CCN(C)CC3)cc2)cc1Nc1nc(-c2cccnc2)cs1 [Masitinib]; details: top dose 20 µM
Procedure: as §1

BX-912 = compound: O=C(Nc1cccc(Nc2ncc(Br)c(NCCc3cnc[nH]3)n2)c1)N1CCCC1 [BX-912]; details: top dose 10.24 µM; top dose inferred
Procedure: as §1

Elesclomol = compound: CN(NC(=O)CC(=O)NN(C)C(=S)c1ccccc1)C(=S)c1ccccc1 [Elesclomol]; details: top dose 0.2 µM; top dose inferred
Procedure: as §1

VNLG/124 = compound: CCCC(=O)OCc1ccc(OC(=O)/C=C(C)/C=C/C=C(C)/C=C/C2=C(C)CCCC2(C)C)cc1 [VNLG/124]; details: top dose 5.12 µM; top dose inferred
Procedure: as §1

[1] = top dose 50 µM, screen: GDSC drug entry 1378, top dose inferred
[2] = top dose 64 µM, screen: GDSC drug entry 190

SKM-1 (haematopoietic neoplasm, suspension)
AUC (HG-5-88-01): 0.741
IC50 (HG-5-88-01): 3.32 µM
AUC (Tamoxifen): 0.946
IC50 (Tamoxifen): > 5 µM
AUC (Bleomycin; [1]): 0.795
IC50 (Bleomycin; [1]): 25.9 µM

SNB75 (glioma, adherent)
AUC (OSI-930): 0.977
IC50 (OSI-930): > 10.2 µM
AUC (HG-5-88-01): 0.897
IC50 (HG-5-88-01): > 10 µM
AUC (LAQ824): 0.527
IC50 (LAQ824): 78.7 nM
AUC (NSC-87877): 0.978
IC50 (NSC-87877): > 16 µM
AUC (Masitinib): 0.937
IC50 (Masitinib): > 20 µM
AUC (BX-912): 0.885
IC50 (BX-912): > 10.2 µM
AUC (Elesclomol): 0.782
IC50 (Elesclomol): 128 nM
AUC (VNLG/124): 0.972
IC50 (VNLG/124): > 5.12 µM
AUC (Bleomycin; [1]): 0.691
IC50 (Bleomycin; [1]): 13.9 µM
AUC (Bleomycin; [2]): 0.403
IC50 (Bleomycin; [2]): 1.91 µM

SNU-C2B (large intestine, adherent)
AUC (OSI-930): 0.925
IC50 (OSI-930): > 10.2 µM
AUC (HG-5-88-01): 0.942
IC50 (HG-5-88-01): > 10 µM
AUC (LAQ824): 0.42
IC50 (LAQ824): 36 nM
AUC (NSC-87877): 0.974
IC50 (NSC-87877): > 16 µM
AUC (Masitinib): 0.933
IC50 (Masitinib): > 20 µM
AUC (BX-912): 0.964
IC50 (BX-912): > 10.2 µM
AUC (Elesclomol): 0.62
IC50 (Elesclomol): 29.6 nM
AUC (VNLG/124): 0.979
IC50 (VNLG/124): > 5.12 µM
AUC (Bleomycin; [1]): 0.595
IC50 (Bleomycin; [1]): 6.18 µM
AUC (Bleomycin; [2]): 0.434
IC50 (Bleomycin; [2]): 2.49 µM

SU-DHL-10 (B-cell lymphoma, suspension)
AUC (OSI-930): 0.919
IC50 (OSI-930): 7.29 µM
AUC (HG-5-88-01): 0.994
IC50 (HG-5-88-01): > 10 µM
AUC (NSC-87877): 0.995
IC50 (NSC-87877): > 16 µM
AUC (Masitinib): 0.917
IC50 (Masitinib): 14 µM
AUC (BX-912): 0.346
IC50 (BX-912): 0.273 µM
AUC (Tamoxifen): 0.997
IC50 (Tamoxifen): > 5 µM
AUC (VNLG/124): 0.994
IC50 (VNLG/124): > 5.12 µM
AUC (Bleomycin; [1]): 0.919
IC50 (Bleomycin; [1]): 35.6 µM

SW1573 (lung adenocarcinoma, adherent)
AUC (OSI-930): 0.966
IC50 (OSI-930): > 10.2 µM
AUC (HG-5-88-01): 0.851
IC50 (HG-5-88-01): > 10 µM
AUC (LAQ824): 0.654
IC50 (LAQ824): 199 nM
AUC (NSC-87877): 0.965
IC50 (NSC-87877): > 16 µM
AUC (Masitinib): 0.931
IC50 (Masitinib): > 20 µM
AUC (BX-912): 0.87
IC50 (BX-912): > 10.2 µM
AUC (Elesclomol): 0.498
IC50 (Elesclomol): 12.3 nM
AUC (VNLG/124): 0.975
IC50 (VNLG/124): > 5.12 µM
AUC (Bleomycin; [1]): 0.487
IC50 (Bleomycin; [1]): 2.85 µM
AUC (Bleomycin; [2]): 0.134
IC50 (Bleomycin; [2]): < 0.25 µM

T84 (large intestine, adherent)
AUC (OSI-930): 0.932
IC50 (OSI-930): > 10.2 µM
AUC (HG-5-88-01): 0.881
IC50 (HG-5-88-01): > 10 µM
AUC (LAQ824): 0.384
IC50 (LAQ824): 30.6 nM
AUC (NSC-87877): 0.976
IC50 (NSC-87877): > 16 µM
AUC (Masitinib): 0.895
IC50 (Masitinib): > 20 µM
AUC (BX-912): 0.941
IC50 (BX-912): > 10.2 µM
AUC (Elesclomol): 0.951
IC50 (Elesclomol): > 200 nM
AUC (VNLG/124): 0.958
IC50 (VNLG/124): > 5.12 µM
AUC (Bleomycin; [1]): 0.931
IC50 (Bleomycin; [1]): > 50 µM
AUC (Bleomycin; [2]): 0.663
IC50 (Bleomycin; [2]): 11.5 µM

U-2-OS (osteosarcoma, adherent)
AUC (OSI-930): 0.974
IC50 (OSI-930): > 10.2 µM
AUC (HG-5-88-01): 0.919
IC50 (HG-5-88-01): > 10 µM
AUC (LAQ824): 0.532
IC50 (LAQ824): 78.9 nM
AUC (NSC-87877): 0.966
IC50 (NSC-87877): > 16 µM
AUC (Masitinib): 0.974
IC50 (Masitinib): > 20 µM
AUC (BX-912): 0.97
IC50 (BX-912): > 10.2 µM
AUC (Elesclomol): 0.558
IC50 (Elesclomol): 18.3 nM
AUC (VNLG/124): 0.979
IC50 (VNLG/124): > 5.12 µM
AUC (Bleomycin; [1]): 0.36
IC50 (Bleomycin; [1]): 1.23 µM
AUC (Bleomycin; [2]): 0.879
IC50 (Bleomycin; [2]): > 64 µM
